Among the data in patent US20220204567A1 (published 2022) are EC50 values, retold here.

This experiment concerns the target wild type HA ectodomain of H1 A/Michigan/45/2015 with C-terminal Foldon trimerization domain. As to the kind of experiment: ELISA. (In general: ELISA stands for enzyme-linked immunosorbent assay.)

B1: multidomain antibody MD3606 (Fc fusion)
chain: EVQLVESGGGLVQPGGSLRLSCAVSISIFDIYAMDWYRQAPGKQRDLVATSFRDGSTNYADSVKGRFTISRDNAKNTLYLQMNSLKPEDTAVYLCHVSLYRDPLGVAGGMGVYWGKGALVTVSSGGGGSGGGGSEVQLVESGGGLVQAGGSLKLSCAASGRTYAMGWFRQAPGKEREFVAHINALGTRTYYSDSVKGRFTISRDNAKNTEYLEMNNLKPEDTAVYYCTAQGQWRAAPVAVAAEYEFWGQGTQVTVSSGGGGSGGGGSEVQLVESGGGLVQPGGSLRLSCAATGFTLENKAIGWFRQTPGSEREGVLCISKSGSWTYYTDSMRGRFTISRDNAENTVYLQMDSLKPEDTAVYYCATTTAGGGLCWDGTTFSRLASSWGQGTQVTVSSGGGGSGGGGSEVQLVESGGGLVQPGGSLKLSCAASGFTFSTSWMYWLRQAPGKGLEWVSVINTDGGTYYADSVKDRFTISRDNAKDTLYLQMSSLKSEDTAVYYCAKDWGGPEPTRGQGTQVTVSS[human IgG1 Fc left out]
As to B1, the EC50 (commonly the midpoint of the concentration-response curve) came to 0.8 nM.
